# Measurements as given in the supplement of paper PMC8728848.
# This is one part of the list.
# B1: rAAL-2 (Agrocybe aegerita) (protein)
# chain: MTSNVITQDLPIPVASRGFADIVGFGLDGVVIGRNAVNLQPFLAVKNFAQNAGGWLTTKHVRLIADTTGTGKGDIVGFGNAGVYVSVNNGKNTFADPPKMVIANFGYDAGGWRVEKHLRYLADIRKIGRADIIGFGEKGVLVSRNNGGLNFGPATLVLKDFGYDAGGWRLDRHLRFLADVTGNGHLDIVGFGDKHVFISRNNGDGTFAPAKSVIDNFCIDAGGWKIGDHPRFVADLTGDGTADIIGCGKAGCWVALNNGGGVFGQVKLVINDFGTDKGWQAAKHPRFIADLTGNGRGDVVGFGNAGVYVALNNGDGTFQSAKLVLKDFGVQQGWTVSKHRRFVVDLTGDGCADIIGFGEKETLVSYNDGKGNFGPVKALTNDFSFSGGKWAPETTVCWMANLDSSRH
# Legend:
# Experiment in all cases: glycan array binding signal (z-score within array); higher = stronger binding
# Details in all cases: glycan notation: IUPAC condensed, linker removed
# [1] = target: Fuc(a1-2)Gal(b1-4)GlcNAc(b1-2)[Fuc(a1-2)Gal(b1-4)GlcNAc(b1-4)]Man(a1-3)[Fuc(a1-2)Gal(b1-4)GlcNAc(b1-2)Man(a1-6)]Man(b1-4)GlcNAc(b1-4)GlcNAc
# Summary of the method: (§1)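 The Consortium for Functional Glycomics database supplied 3228 glycan arrays, of which those lacking an available protein sequence were dropped. The binding signal, a within-array Z-score, was averaged across arrays of the same protein sequence and across linkers. Negative scores can be read as non-binding.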
# [2] = target: Fuc(a1-2)Gal(b1-4)GlcNAc(b1-3)Gal(b1-4)GlcNAc
# Summary of the method: as §1
# [3] = target: Fuc(a1-2)Gal(b1-4)GlcNAc(b1-3)Gal(b1-4)GlcNAc(b1-2)Man(a1-3)[Fuc(a1-2)Gal(b1-4)GlcNAc(b1-3)Gal(b1-4)GlcNAc(b1-2)Man(a1-6)]Man(b1-4)GlcNAc(b1-4)GlcNAc
# Summary of the method: as §1
# [4] = target: Fuc(a1-2)Gal(b1-4)GlcNAc(b1-3)Gal(b1-4)GlcNAc(b1-3)Gal(b1-4)GlcNAc
# Summary of the method: as §1
# [5] = target: Fuc(a1-2)Gal(b1-4)GlcNAc(b1-3)GalNAc
# Summary of the method: as §1
# [6] = target: Fuc(a1-2)Gal(b1-4)GlcNAc(b1-3)[Fuc(a1-2)Gal(b1-4)GlcNAc(b1-6)]GalNAc
# Summary of the method: as §1
# [7] = target: Fuc(a1-2)Gal(b1-4)GlcNAc(b1-3)[Fuc(a1-3)[Gal(b1-4)]GlcNAc(b1-6)]Gal(b1-4)Glc
# Summary of the method: as §1
# [8] = target: Fuc(a1-2)Gal(b1-4)GlcNAc(b1-6)GalNAc
# Summary of the method: as §1
# [9] = target: Fuc(a1-2)Gal(b1-4)GlcNAc6S
# Summary of the method: as §1
# [10] = target: Fuc(a1-2)Gal(b1-4)[Fuc(a1-3)]GlcNAc
# Summary of the method: as §1
# [11] = target: Fuc(a1-2)Gal(b1-4)[Fuc(a1-3)]GlcNAc(b1-2)Man(a1-3)[Fuc(a1-2)Gal(b1-4)[Fuc(a1-3)]GlcNAc(b1-2)Man(a1-6)]Man(b1-4)GlcNAc(b1-4)GlcNAc
# Summary of the method: as §1
# [12] = target: Fuc(a1-2)Gal(b1-4)[Fuc(a1-3)]GlcNAc(b1-2)Man(a1-3)[Fuc(a1-2)Gal(b1-4)[Fuc(a1-3)]GlcNAc(b1-2)Man(a1-6)]Man(b1-4)GlcNAc(b1-4)[Fuc(a1-6)]GlcNAc
# Summary of the method: as §1
# [13] = target: Fuc(a1-2)Gal(b1-4)[Fuc(a1-3)]GlcNAc(b1-2)[Fuc(a1-2)Gal(b1-4)[Fuc(a1-3)]GlcNAc(b1-4)]Man(a1-3)[Fuc(a1-2)Gal(b1-4)[Fuc(a1-3)]GlcNAc(b1-2)Man(a1-6)]Man(b1-4)GlcNAc(b1-4)GlcNAc
# Summary of the method: as §1
# [14] = target: Fuc(a1-2)Gal(b1-4)[Fuc(a1-3)]GlcNAc(b1-3)Gal(b1-4)[Fuc(a1-3)]GlcNAc
# Summary of the method: as §1
# [15] = target: Fuc(a1-2)Gal(b1-4)[Fuc(a1-3)]GlcNAc(b1-3)Gal(b1-4)[Fuc(a1-3)]GlcNAc(b1-3)Gal(b1-4)[Fuc(a1-3)]GlcNAc
# Summary of the method: as §1
# [16] = target: Fuc(a1-2)Gal(b1-4)[Fuc(a1-3)]GlcNAc(b1-3)GalNAc
# Summary of the method: as §1
# [17] = target: Fuc(a1-2)Gal(b1-4)[Fuc(a1-3)]GlcNAc(b1-3)[Neu5Ac(a2-6)Gal(b1-4)GlcNAc(b1-6)]Gal(b1-4)Glc
# Summary of the method: as §1
# [18] = target: Fuc(a1-2)Gal3S(b1-4)GlcNAc
# Summary of the method: as §1
# [19] = target: Fuc(a1-2)Gal6S(b1-3)GlcNAc
# Summary of the method: as §1
# [20] = target: Fuc(a1-2)Gal6S(b1-3)GlcNAc6S
# Summary of the method: as §1
# Fuc(a1-2)Gal6S(b1-4)Glc = target: Fuc(a1-2)Gal6S(b1-4)Glc
# Summary of the method: as §1
# [21] = target: Fuc(a1-2)Gal6S(b1-4)Glc6S
# Summary of the method: as §1
# [22] = target: Fuc(a1-2)Gal6S(b1-4)GlcNAc
# Summary of the method: as §1
# Fuc(a1-2)[Gal(a1-3)]Gal = target: Fuc(a1-2)[Gal(a1-3)]Gal
# Summary of the method: as §1
# [23] = target: Fuc(a1-2)[Gal(a1-3)]Gal(b1-3)GalNAc
# Summary of the method: as §1
# [24] = target: Fuc(a1-2)[Gal(a1-3)]Gal(b1-3)GalNAc(b1-3)Gal(a1-4)Gal(b1-4)Glc
# Summary of the method: as §1
# [25] = target: Fuc(a1-2)[Gal(a1-3)]Gal(b1-3)GlcNAc
# Summary of the method: as §1
# [26] = target: Fuc(a1-2)[Gal(a1-3)]Gal(b1-3)GlcNAc(b1-2)Man(a1-3)[Fuc(a1-2)[Gal(a1-3)]Gal(b1-3)GlcNAc(b1-2)Man(a1-6)]Man(b1-4)GlcNAc(b1-4)GlcNAc
# Summary of the method: as §1
# [27] = target: Fuc(a1-2)[Gal(a1-3)]Gal(b1-3)GlcNAc(b1-2)Man(a1-3)[Fuc(a1-2)[Gal(a1-3)]Gal(b1-3)GlcNAc(b1-2)Man(a1-6)]Man(b1-4)GlcNAc(b1-4)[Fuc(a1-6)]GlcNAc
# Summary of the method: as §1
# [28] = target: Fuc(a1-2)[Gal(a1-3)]Gal(b1-3)GlcNAc(b1-3)GalNAc
# Summary of the method: as §1
binder,measurement,setting,value
B1,glycan array binding signal (z-score),[1],-0.099
same,glycan array binding signal (z-score),[2],-0.31
same,glycan array binding signal (z-score),[3],-0.083
same,glycan array binding signal (z-score),[4],-0.25
same,glycan array binding signal (z-score),[5],-0.181
same,glycan array binding signal (z-score),[6],-0.373
same,glycan array binding signal (z-score),[7],-0.159
same,glycan array binding signal (z-score),[8],0.273
same,glycan array binding signal (z-score),[9],-0.192
same,glycan array binding signal (z-score),[10],-0.292
same,glycan array binding signal (z-score),[11],-0.155
same,glycan array binding signal (z-score),[12],0.188
same,glycan array binding signal (z-score),[13],-0.081
same,glycan array binding signal (z-score),[14],-0.276
same,glycan array binding signal (z-score),[15],-0.197
same,glycan array binding signal (z-score),[16],-0.062
same,glycan array binding signal (z-score),[17],-0.325
same,glycan array binding signal (z-score),[18],-0.312
same,glycan array binding signal (z-score),[19],-0.3
same,glycan array binding signal (z-score),[20],-0.331
same,glycan array binding signal (z-score),Fuc(a1-2)Gal6S(b1-4)Glc,-0.232
same,glycan array binding signal (z-score),[21],-0.27
same,glycan array binding signal (z-score),[22],-0.301
same,glycan array binding signal (z-score),Fuc(a1-2)[Gal(a1-3)]Gal,-0.221
same,glycan array binding signal (z-score),[23],-0.278
same,glycan array binding signal (z-score),[24],0.126
same,glycan array binding signal (z-score),[25],-0.296
same,glycan array binding signal (z-score),[26],-0.296
same,glycan array binding signal (z-score),[27],-0.193
same,glycan array binding signal (z-score),[28],-0.151
